According to PubChem BioAssay AID1458 (National Center for Advancing Translational Sciences (NCATS), 2008):
About 5,900 (2.8%) of roughly 210,000 compounds were called active. This list was built around the results that the source calls inconclusive (neither active nor inactive); the mix of calls is not that of the screen. Calls follow the shape of the dose curve; as a rule, active = well fitted activation curve with a large enough effect; inconclusive = small, poorly fitted or top-dose-only effect; inactive = no such curve, though single readings can be large or run the other way. Potencies of inconclusive entries are doubtful fits and often do not repeat.

Test: qHTS Assay for Enhancers of SMN2 Splice Variant Expression; also: nearly all actives have a fitted effect of over 55% in size; as to activity change, positive = activation: % of control where 0% means no effect
Settings: HEK293 SMN2-luciferase splicing reporter, luminescence, 30-36 h; activity change, positive = activation: at 46.1 µM (top of the series)
How it was run: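 HEK293 cells carry an SMN2 minigene-luciferase reporter in which exon 7 inclusion puts luciferase in frame. Cells were seeded at 2000 cells/well, attached for 10-12 hours, then exposed to compounds for 30-36 hours at 37C before ONE-Glo luminescence.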
Potency is read from the fitted curve at half-maximal effect; tags tell the direction and shape of the fitted curve.

Compound	Potency	activity change, positive = activation
O=C(Cn1cc([N+](=O)[O-])cn1)Nc1ccn(Cc2c(F)c(F)cc(F)c2F)n1	inconclusive: 0.282 µM [activator, full curve, poor fit]	–
CCOC(=O)c1sc(Nc2nc3cc4c(cc3s2)OCO4)cc1C	inconclusive: 35.5 µM [activator, single point]	–
CC(=O)c1ccc(N2CCN(C(=O)c3ccco3)CC2)c(F)c1	active: 2.82 µM	–
CCOC(=O)C1=C(O)C(=O)N(c2ccc(S(N)(=O)=O)cc2)C1c1ccc(OC)cc1OC (stereo not given)	inconclusive: 14.1 µM [activator, single point]	–
Cc1nnc2ccc(N3CCC4(CC3)OCCO4)nn12	inconclusive: 10 µM [activator, partial curve, poor fit]	–
O=C(NCC(=O)N(Cc1ccccc1)C(C(=O)NC1CCCC1)c1ccco1)c1ccco1 (stereo not given)	inconclusive: 6.31 µM [activator, full curve, poor fit]	–
Clc1cnc(N/N=C/c2cccs2)c(Cl)c1	inconclusive: 35.5 µM [activator, single point]	–
Cc1cccc(C)c1NC(=S)N(CCN(C)C)C(C)c1ccccn1 (stereo not given)	inactive	–
Cc1cc2ncc(-c3ccccc3)nc2cc1C	active: 5.01 µM	–
COc1ccc(/C=C/C(=O)Nc2ccc(C34CC5CC(CC(O)(C5)C3)C4)cc2)cc1OC	active: 12.6 µM	–
O=C(NCCc1csc(-c2cccnc2)n1)c1ccco1	inactive	–
Cc1nc2ccccc2n1S(=O)(=O)N(C)C	inconclusive: 0.0447 µM [activator, full curve]	–
Nc1ccccc1-c1nc2ccccc2s1	inconclusive: 14.1 µM [activator, single point]	–
CCOc1ccc(-c2cc(C(=O)NCC3CCCO3)c3ccccc3n2)cc1 (stereo not given)	inconclusive: 8.91 µM [activator, partial curve]	–
COc1ccc(C(=O)COC(=O)CN2C(=O)C3C4C=CC(C4)C3C2=O)cc1 (stereo not given)	inconclusive: 6.31 µM [activator, single point]	–
Oc1cccc(-c2nc3ccccc3s2)c1	inconclusive: 31.6 µM [activator, single point]	–
Cc1nc2ccc(C(=O)NCc3ccc4c(c3)OCO4)cc2s1	inconclusive: 31.6 µM [activator, single point]	–
COc1ccc(C(=O)c2coc3ccc(O)cc23)cc1	inconclusive: 35.5 µM [activator, single point]	–
COCCOC(=O)c1c(NC(=O)CN2c3ccccc3CC2C)sc(C(N)=O)c1C (stereo not given)	inactive	–
O=C(CNS(=O)(=O)c1cccs1)N1CCN(c2ccccc2Cl)CC1	inconclusive: 14.1 µM [activator, single point]	–
O=C(Nc1ccc([N+](=O)[O-])cc1)c1nc[nH]c1C(=O)NC1CCCCC1	inconclusive: 14.1 µM [activator, partial curve, poor fit]	–
COC(=O)N1C(/C=C/C=C/c2ccc(OC)cc2)=Cc2ccccc2C1CC(C)=O (stereo not given)	–	inactive: -7.94% [at 9.22 µM]
CCCCCC(=O)Nc1ccc2ccccc2c1	inconclusive: 35.5 µM [activator, single point]	–
Cc1noc(C)c1-c1cc(N(C)C)ncn1	inactive	–

Compound	Potency	activity change, positive = activation
Cc1ccccc1S(=O)Cc1ccc(C(=O)NC2CCCCCC2)o1 (stereo not given)	inactive	–
CCCCC(=O)Nc1ccc(NC(=S)NC(=O)c2cccs2)cc1OC	inconclusive: 0.0447 µM [activator, full curve, poor fit]	–
O=C(Nc1nc2c(s1)CCCC2)c1ccc2ncsc2c1	active: 0.501 µM	–
O=C(Cn1ncc2c3ccccc3n(Cc3ccc(Cl)cc3)c2c1=O)N1CCCCCC1	inactive	–
COc1cccc(NC(=O)Nc2cc(NC(=O)Nc3cccc(OC)c3)c(C)nc2C)c1	inactive	–
COc1ccc(C(=O)Oc2cccc(/C=N/NC(N)=S)c2)cc1	inconclusive: 0.355 µM [activator, full curve, poor fit]	–
Cc1cc(C)cc(Oc2coc3cc(OC(=O)c4cccnc4)ccc3c2=O)c1	inconclusive: 0.112 µM [activator, full curve, poor fit]	–
Nc1nnnn1/N=C/c1ccc(N2CCCCC2)c([N+](=O)[O-])c1	inconclusive: 22.4 µM [activator, partial curve, poor fit]	–
C[C@H](NC(=O)CNC(=O)[C@@H](NC(=O)[C@H](Cc1ccccc1)NC(=O)CNC(=O)CNC(=O)[C@@H](N)Cc1ccccc1)[C@@H](C)O)C(=O)N[C@@H](CCCN=C(N)N)C(=O)N[C@@H](CCCCN)C(=O)N[C@@H](CO)C(=O)N[C@@H](C)C(=O)N[C@@H](CCCN=C(N)N)C(=O)N[C@H](CN)CCCCN	inactive	–
CCOc1ccc(/C=N/NC(=O)c2cc(-c3ccco3)nc3ccccc23)cc1	–	inconclusive: 33.3% [activator]
CCCCNC(=O)Nc1ccccn1	active: 5.01 µM	–
COc1ccc(OCc2nc3c4cc(OC)c(OC)cc4nc(=S)n3[nH]2)cc1	–	inconclusive: 36.4% [activator]
O=C(Nc1cccnc1Cl)c1ccc2c(Cl)c3c(nc2c1)CCC3	inconclusive: 22.4 µM [activator, single point]	–
CCN1CCN(C(=S)Nc2ccc([N+](=O)[O-])cc2)CC1	inconclusive: 35.5 µM [activator, single point]	–
Nc1cc(Cl)nc(N/N=C/c2c(O)ccc3ccccc23)n1	inconclusive: 7.08 µM [activator, full curve, poor fit]	–
COc1ccccc1/C=N/n1c(N)c(S(=O)(=O)c2cccs2)c2nc3ccccc3nc21	inconclusive: 31.6 µM [activator, single point]	–
S=c1[nH]nc(-c2ccccn2)n1/N=C/c1ccc(-c2ccccc2Br)o1	inconclusive: 35.5 µM [activator, single point]	–
CC(Nc1oc(-c2ccccc2)nc1-c1ccccc1)c1ccccc1 (stereo not given)	inconclusive: 0.0891 µM [activator, full curve, poor fit]	–
CN(C)/C=C(\C#N)C(=O)N/N=C/c1ccc(F)cc1	inactive	–
O=C(NCC1CCCO1)c1ccc(COc2ccc(F)cc2)o1 (stereo not given)	inconclusive: 0.501 µM [activator, full curve]	–
COc1ccc(-c2cc(C(F)(F)F)nc(SCC(=O)NCCCN3CCOCC3)n2)cc1	inactive	–
CN(C)S(=O)(=O)c1ccc(C(=O)Nc2cccnc2)cc1	inactive	–
CN(C(=O)c1ccccc1C(=O)OCC(=O)NC(=O)NC(C)(C)C)C1CCCCC1	inconclusive: 31.6 µM [activator, single point]	–
CC(C)(C)c1ccc(NC(=O)CC2(C(F)(F)F)OCCO2)cc1	inconclusive: 20 µM [activator, partial curve, poor fit]	–

Compound	Potency	activity change, positive = activation
O=C(Oc1ccc2c(c1)OCO2)c1cccs1	inconclusive: 0.447 µM [activator, full curve, poor fit]	–
COc1c(N2C[C@@H]3CCCN[C@H]3C2)c(F)cc2c(=O)c(C(=O)O)cn(C3CC3)c12	inactive	–
Cc1cnc(CNc2nc(-c3ccc(N(C)C)cc3)nc3ccccc23)cn1	inconclusive: 8.91 µM [activator, partial curve]	–
Cc1cccc(-c2noc(CSc3ccccc3)n2)c1	inconclusive: 20 µM [activator, single point]	–
CCN1CCN(C(=O)NC(C(=O)NC2C(=O)N3C(C(=O)O)=C(CSc4nnnn4C)CSC23)c2ccc(O)cc2)C(=O)C1=O (stereo not given)	inactive	–
COc1cc(-c2nc(SCC(=O)Nc3ccc4c(c3)OCO4)c(-c3ccccc3)[nH]2)cc(OC)c1OC	inconclusive: 12.6 µM [activator, partial curve, poor fit]	–
Cn1c(=O)c2[nH]c(COCc3nc4c([nH]3)c(=O)n(C)c(=O)n4C)nc2n(C)c1=O	–	inactive: 2.42% [at 9.22 µM]
Cc1c2cnn(-c3ccccc3)c(=O)c2c(C)n1C(C)C(=O)Nc1ccccc1C(F)(F)F (stereo not given)	inactive	–
Oc1ccc(/C=N/Nc2nc(-c3ccc(Cl)cc3)cc(C(F)(F)F)n2)cc1	inactive	–
C=CCC(C)(O)c1ccccc1 (stereo not given)	inactive	–
C=CCOc1ccc(CNc2nccs2)cc1	inconclusive: 35.5 µM [activator, single point]	–
NC1=NC(=Nc2ccccc2)c2ccccc21	inconclusive: 28.2 µM [activator, partial curve, poor fit]	–
CCN1C(=O)c2cccc3c(S(=O)(=O)Nc4ncccc4C)ccc1c23	inconclusive: 14.1 µM [activator, single point]	–
CCC(=O)N1CCc2cc(Br)cc(S(=O)(=O)C3(C(=O)OC)CC3)c21	inconclusive: 14.1 µM [activator, partial curve, poor fit]	–
COc1cc(S(=O)(=O)N2CCN3CCCC3C2)ccc1-n1cnnn1 (stereo not given)	inconclusive: 4.47 µM [activator, single point]	–
CC(C)(C)c1ccc(C(=O)Nc2ccc(-c3nc4ccccc4o3)c(O)c2)cc1	inactive	–
O=C(Nc1ccc(Cl)cn1)Nc1ccccc1F	inconclusive: 14.1 µM [activator, single point]	–
COc1ccc(Oc2ncc3nc(-c4cn(C)c5ccccc45)c(=O)n(CCC#N)c3n2)cc1	inactive	–
CCCCSc1nc2sc3c(c2c(=O)n1-c1ccccc1C)CC(C)(C)OC3	inactive	–
FC(F)(F)c1cc(-c2ccccc2)nc2cc(-c3ccccc3)nn12	inactive	–
COc1ccc(-n2cc(-c3ccccc3)[nH]c2=S)cc1	–	inconclusive: 38.1% [activator]
CCC1(c2ccc(F)cc2)NC(=O)N(CC(=O)Nc2ccc(-c3nc4ccc(C)cc4s3)cc2)C1=O (stereo not given)	active: 3.98 µM	–
